The source of these data is the supplement of paper PMC10126150.

The subject of this series is ATP. The series can be described thus: switch fluorescence ratio, 500 uM ATP over buffer (Cy3 cluster intensity, sum of 5 cycles each) (fold (ratio)); higher = stronger signal-on switching upon ATP binding; sequences stand for … in TCGTCGGCAGCGTCAGATGTGTATAAGAGACAGTTTTTTTTTTTTTTTTTTTTTTTTT…TC. The following applies: aptamer strand: ATP DNA aptamer (quencher-CACCTGGGGGAGTATTGCGGAGGAAGG + anchor), 100 nM annealed; ATP concentration: 500 uM; one replicate. Put shortly: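 For every switch-domain sequence, the fluorescence ratio is the mean of per-cluster values, each being summed target-cycle Cy3 intensity over summed buffer-cycle Cy3 intensity. Clusters outside 100-1000 RFU were excluded. On a modified Illumina MiSeq flow-cell, the Cy3-labelled switching-strand clusters were annealed to 100 nM quencher-labelled ATP aptamer, imaged in selection buffer and then after 15 min with 500 uM ATP at 22 °C. Five such cycles were run, with NaOH stripping and re-annealing between them.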

Values marked as one replicate rest on one cluster of the flow cell; about a third of the high ones do not repeat.
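Note: ATP exposure 15 min at 22 °C before imaging.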

As to ATACTATCAC, the switch fluorescence ratio is 1.15.

Turning to CTCCGGTTAT, the switch fluorescence ratio amounted to 4.29.

Take AAAGCACTCC: the switch fluorescence ratio was 1.13.

Take TTTAGAAGTA: the switch fluorescence ratio stood at 1.01.

On to TTTGTCGTT, for which the switch fluorescence ratio stood at 0.99.

GGCCATTGAC: the switch fluorescence ratio stood at 1.04.

In the case of CTACATCGA, the switch fluorescence ratio came to 0.988.

Take AGACGAGCGA: the switch fluorescence ratio amounted to 1.13.

Turning to AATCTGGCT, the switch fluorescence ratio was 1.02.

Regarding TCTTATTGAC, the switch fluorescence ratio was 1.05.

As to ATTACAATA, the switch fluorescence ratio was 1.1.

Regarding TGTTGAGAGC, the switch fluorescence ratio came to 1.01.

For CGGGTTCCGC, the switch fluorescence ratio amounted to 1.02.

For the sequence TTGGTAACAC, the switch fluorescence ratio stood at 1.04.

TTGAGTTCCC: the switch fluorescence ratio was 0.995.

As to CAAGGGGAAT, the switch fluorescence ratio worked out at 0.969.

With TCTCCTTTTA, the switch fluorescence ratio worked out at 1.67.

Regarding TTTTTATGTA, the switch fluorescence ratio turned out to be 1.06.

For the sequence AGAGGTTTAC, the switch fluorescence ratio amounted to 1.02.

Consider GTAAACCTGT, for which the switch fluorescence ratio turned out to be 1.05.

Take TCTAAAATGG: the switch fluorescence ratio worked out at 1.02.

As for ACAACGCAAA, the switch fluorescence ratio was found to be 5.34.

Take TTTGCATAAA: the switch fluorescence ratio was 1.02.

On to CGAGACACAT, for which the switch fluorescence ratio amounted to 1.05.

As to CACAGTACAC, the switch fluorescence ratio was determined as 1.51.

GTACCCCAGA: the switch fluorescence ratio was determined as 1.26.

As for ATGGTACGTA, the switch fluorescence ratio amounted to 0.98.

Take GCAACGGCAC: the switch fluorescence ratio worked out at 1.38.

As to AAGTTATCA, the switch fluorescence ratio is 0.992.

For TTTAAAGTAG, the switch fluorescence ratio turned out to be 1.08.

GGAGGGTACT: the switch fluorescence ratio was found to be 1.02.

On to GGCACCTTTG, for which the switch fluorescence ratio was determined as 1.

Regarding TGTCGCGGGA, the switch fluorescence ratio was determined as 1.1.

As to GGGTGTGAAG, the switch fluorescence ratio was 1.03.

Regarding GGTTGGAGGA, the switch fluorescence ratio amounted to 1.03.

GAGGTACCTC: the switch fluorescence ratio was found to be 0.987.

With TGTGCAAGTC, the switch fluorescence ratio came to 1.11.

For the sequence CGTGCGGGAG, the switch fluorescence ratio is 0.961.

For the sequence GAAGAGGGCA, the switch fluorescence ratio is 1.04.

For the sequence TAGAGCGCGG, the switch fluorescence ratio is 1.1.

On to GACTTCTACG, for which the switch fluorescence ratio was determined as 0.985.

For the sequence TCAGGCGGTG, the switch fluorescence ratio was found to be 1.01.

Take GTAGCGTGAC: the switch fluorescence ratio turned out to be 2.

As for ATAGGTATTT, the switch fluorescence ratio turned out to be 1.01.

Take ACTTCGGCTG: the switch fluorescence ratio is 1.05.

With ATATCACCAT, the switch fluorescence ratio was found to be 1.03.

Take GTGGGAAATA: the switch fluorescence ratio turned out to be 0.97.

Regarding GCACGGGAGA, the switch fluorescence ratio is 1.03.

For GGAAGTCAGC, the switch fluorescence ratio is 0.919.

AATAGGATGT: the switch fluorescence ratio was 0.959.

In the case of GGATAAAACT, the switch fluorescence ratio is 1.04.

For TCGCGCCTTA, the switch fluorescence ratio came to 1.06.

On to CCAAATCGAA, for which the switch fluorescence ratio amounted to 0.992.

As to CCCAACATAG, the switch fluorescence ratio came to 1.03.

For the sequence GTGTGTTAAT, the switch fluorescence ratio turned out to be 1.03.

With TCTGAGACGG, the switch fluorescence ratio was 0.974.

Turning to TTTTTCGCG, the switch fluorescence ratio is 1.01.

For the sequence GCTATGCATG, the switch fluorescence ratio was 1.01.

Consider ACCCTAAAGA, for which the switch fluorescence ratio turned out to be 1.01.

As for GACGTCCTAG, the switch fluorescence ratio was 0.993.

Consider TTACAGAGGG, for which the switch fluorescence ratio is 1.04.

Take GCTCTTTCGC: the switch fluorescence ratio was found to be 1.03.

In the case of TTATGGATGG, the switch fluorescence ratio was found to be 0.951.

For the sequence AATTTATGTG, the switch fluorescence ratio came out at 1.02.

Consider ATCCAGTCAT, for which the switch fluorescence ratio worked out at 1.02.

Regarding AAGAGCTCGA, the switch fluorescence ratio came out at 0.965.

GTCAGAACGA: the switch fluorescence ratio worked out at 1.01.

Turning to ATAAAAGCCT, the switch fluorescence ratio turned out to be 1.02.

Regarding TTCAAGCATC, the switch fluorescence ratio is 1.09.

As for CAGATTCCTT, the switch fluorescence ratio was determined as 0.997.

Take CGTTTGAGAT: the switch fluorescence ratio is 1.

As for ATAGGTTCG, the switch fluorescence ratio was 1.03.

With AACTCGACGC, the switch fluorescence ratio turned out to be 1.5.

With TCTGGGGTT, the switch fluorescence ratio was 1.01.

ATCTACAGCA: the switch fluorescence ratio is 1.09.

Consider TTCGGTCATT, for which the switch fluorescence ratio was 0.981.

For GTCGCATGA, the switch fluorescence ratio is 0.994.

As for ACTCTCGCTA, the switch fluorescence ratio was 4.7.

As for GCATATATCA, the switch fluorescence ratio was 0.982.

Turning to TTCCAAAGCT, the switch fluorescence ratio worked out at 1.45.

AGGCAATCAC: the switch fluorescence ratio came to 3.59.

As for TTTACCGTAA, the switch fluorescence ratio was 1.26.

Regarding ATTTAGGGCG, the switch fluorescence ratio turned out to be 1.

CAGCGCACTT: the switch fluorescence ratio is 1.08.

Consider AAAAGGACGA, for which the switch fluorescence ratio amounted to 1.01.

On to AACAAGAGGC, for which the switch fluorescence ratio worked out at 0.976.

In the case of GCGTACCTGC, the switch fluorescence ratio turned out to be 0.945.

As for TACTATGTTA, the switch fluorescence ratio worked out at 1.02.

For the sequence AGTCCAGGCG, the switch fluorescence ratio is 1.03.

For the sequence GATACCCGTC, the switch fluorescence ratio stood at 1.09.

For the sequence AAAGGGGCCA, the switch fluorescence ratio is 1.04.

Consider GAGTTCAAAG, for which the switch fluorescence ratio is 1.03.

With GAGGCCGACA, the switch fluorescence ratio was 0.997.

GGGGCTCTTG: the switch fluorescence ratio came out at 1.01.

For the sequence TCTCGTACTC, the switch fluorescence ratio came to 1.15.

ATTACACGTA: the switch fluorescence ratio came to 1.17.

Consider AAGACTGACC, for which the switch fluorescence ratio was found to be 1.13.

Turning to CCAACAGCAT, the switch fluorescence ratio amounted to 3.72.

On to TTTGCGTCC, for which the switch fluorescence ratio came to 1.01.

Consider ATCGGGAGTG, for which the switch fluorescence ratio is 0.954.

For the sequence AATGCCGCGG, the switch fluorescence ratio came to 1.

In the case of GTGATACTGC, the switch fluorescence ratio was 1.25.

On to CATTGCCTTA, for which the switch fluorescence ratio amounted to 0.996.

On to ACTAGTCTA, for which the switch fluorescence ratio worked out at 1.01.

For GAGTTGCCTC, the switch fluorescence ratio was found to be 0.991.

Regarding GCGCTTAGT, the switch fluorescence ratio amounted to 1.05.

Take GCTTTCGCCA: the switch fluorescence ratio came to 1.13.

On to CGGGTCGTTT, for which the switch fluorescence ratio is 0.971.

For the sequence CGATTAGTAT, the switch fluorescence ratio was determined as 0.98.

Turning to TAATCACTTG, the switch fluorescence ratio stood at 0.972.

Turning to GGGGACACCC, the switch fluorescence ratio came to 1.02.

Take GGCAGGGTCG: the switch fluorescence ratio worked out at 1.02.

ACATCATCGG: the switch fluorescence ratio was determined as 1.02.

Regarding CTTTTATAGA, the switch fluorescence ratio was found to be 1.01.

For GTTTTTCCCA, the switch fluorescence ratio was 1.02.

For the sequence CTTAGAGCCC, the switch fluorescence ratio was 0.998.

As for CACTTGATTG, the switch fluorescence ratio came to 1.03.

Regarding AAGCCGCCGG, the switch fluorescence ratio came out at 1.01.

GGCATTTAAC: the switch fluorescence ratio turned out to be 1.02.

Turning to TGTCGTACTG, the switch fluorescence ratio is 1.02.
